Among all 48,000 compounds or so, about 450 (0.94%) were called active. Not shown: some 19% with an inconclusive outcome. Calls come from the whole dose curve; as a rule, active = well fitted inhibition curve with a large enough effect; inconclusive = small, poorly fitted or top-dose-only effect; inactive = no such curve, though single readings can be large or run the other way. This is one part of the list.

This assay in a line: Primary qHTS for Identification of Small Molecule Inhibitors of Huntingtin Promoter Activity. Note: nearly all actives have a fitted effect of over 50% in size. The following applies: HEK293 HTT promoter firefly luciferase reporter (activity 0% = vehicle and -100% = no light), 24 h; series mostly up to 57.5 µM; activity change, negative = inhibition: at the top concentration. The method, boiled down: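 Quantitative HTS used concentration series of up to 57.5 uM final on HEK293 luciferase reporter cells, 24 h at 37 degrees C. Readout was Dual-Glo firefly luminescence.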
In general terms: qHTS replaces the single test concentration by a dilution series.
Take `Cc1c(C)n(C)c2ccc(C(=O)NCCc3ccc(Cl)cc3)cc12`: the “activity change, negative = inhibition” value was inactive: 2.89%. Regarding `Cc1ccc(-n2nc3ccc(NC(=O)Cc4ccc(Cl)cc4)cc3n2)cc1`, the “activity change, negative = inhibition” value is inactive: -10.7%. As to `CCOC(=O)c1c(NC(=O)C(C)Sc2cn(CCNC(=O)c3ccccc3OC)c3ccccc23)sc2c1CCC2` (centres undefined), the “activity change, negative = inhibition” value was inactive: -32.8%. As for `COC(=O)c1sc2cccc(F)c2c1S(=O)(=O)NCc1ccc(Cl)cc1`, the figure is inactive: 0.746%. As to `CCOC(=O)COc1ccc(CC)cc1C(=O)c1ccn2nc(-c3ccc(Cl)cc3)cc2n1`, the “activity change, negative = inhibition” value was inactive: -5.59%.

For the compound `COc1cccc(CNC(=O)CSC2=Nc3ccccc3C3=NC(C)C(=O)N23)c1OC` (centres undefined), the “activity change, negative = inhibition” value was inactive: -8.59%.

Turning to `CCOc1ccc(NC(=O)Cn2c(=O)n(CCCC(=O)NCc3ccc4c(c3)OCO4)c(=O)c3ccccc32)cc1`, the “activity change, negative = inhibition” value is inactive: 3.19%. For the compound `Cc1ccc(CSc2ncc(Cl)c(C(=O)Oc3ccc(F)cc3)n2)cc1`, the “activity change, negative = inhibition” value was inactive: 27.8%. As for `COc1ccccc1N1CCN(CCCNC(=O)c2cnn(-c3ccc(C)c(C)c3)c2C2CCN(C(=O)OC(C)(C)C)CC2)CC1`, the figure is inactive: -23.2%. Turning to `Fc1ccc(-c2cc(C(F)(F)F)nc(NCc3ccccc3)n2)cc1`, the “activity change, negative = inhibition” value is inactive: -18.1%.

In the case of `COc1ccccc1CNC(=O)c1cnc2c(-c3ccccc3)c(C)nn2c1C`, the “activity change, negative = inhibition” value was inactive: -13.1%. Consider `CCc1nn(CC(=O)N2CCN(c3ccc(Cl)cc3)CC2)c(=O)c2cc3occc3n12`, for which the “activity change, negative = inhibition” value was inactive: -8.39%.

In the case of `CCn1c(=O)n(-c2cccc(Cl)c2)c(=O)c2sc3ccccc3c21`, the “activity change, negative = inhibition” value was inactive: -5.83%. For `O=C(Nc1ccc(Cl)cc1)c1cc2nc(-c3ccc4c(c3)OCO4)cc(C(F)(F)F)n2n1`, the activity change, negative = inhibition was inactive: -7.24% [at 11.5 µM]. As for `COc1ccc(C(=O)Nc2ccccc2-c2nc(-c3ccc(OC)cc3)no2)cc1`, the “activity change, negative = inhibition” value is inactive: 5.85%. With `O=C(CCC(=O)c1ccccc1)Nc1ccc(F)c(Cl)c1`, the “activity change, negative = inhibition” value is inactive: -5.64%. As to `COc1ccc(OC)c(/C=C(\C#N)c2nc3ccccc3c(=O)[nH]2)c1`, the “activity change, negative = inhibition” value was inactive: -3.34%.

Regarding `O=S(=O)(NCCS(=O)(=O)N1CCN(c2ccccc2)CC1)c1ccc(Cl)cc1`, the “activity change, negative = inhibition” value is inactive: -19%.

For the compound `Cc1sc2c(c1C)c(=O)n(CCc1ccccc1)c(=O)n2Cc1ccc(F)cc1`, the “activity change, negative = inhibition” value was inactive: -14.9%.

In the case of `CCOC(=O)c1ccc2c(c1)[C@@H]1C=CC[C@@H]1[C@H](c1cccc(OC)c1OC)N2`, the “activity change, negative = inhibition” value was inactive: -3.8%. For `CCCC(=O)C1=C(c2cccc(OC)c2)N(C(=O)CCC)n2c(C)nnc2S1`, the “activity change, negative = inhibition” value was inactive: -28%. Turning to `Cc1cc(C)c2sc(N(Cc3cccnc3)C(=O)CCOc3ccccc3)nc2c1`, the “activity change, negative = inhibition” value is inactive: -28.6%.

In the case of `Cn1ccc2c(OCC(=O)Nc3ccc([N+](=O)[O-])cc3)cccc2c1=O`, the “activity change, negative = inhibition” value was inactive: -33.2%.

Take `CSc1ccc(CNC(=O)CN2C(=O)C3CCCCN3c3ccc(C(=O)N4CCCC4)cc32)cc1` (centres undefined): the “activity change, negative = inhibition” value was inactive: -9.98%.

Regarding `CCOC(=O)C1CCN(C(=O)c2ccc3c(c2)sc2nc(-c4ccc(C)cc4)cn23)CC1`, the “activity change, negative = inhibition” value was inactive: 12.6%. As for `COC(=O)c1cc2sc(C)cc2n1CC(=O)Nc1cccc(SC)c1`, the figure is inactive: -19.2%. Consider `Cc1cccc(OCC(=O)Nc2ccc3oc(-c4ccccc4F)nc3c2)c1`, for which the “activity change, negative = inhibition” value is inactive: 18.5%.

`COc1ccc(-c2nc3cc(C(C)C)ccc3o2)cc1NC(=O)c1ccc(C)c(Cl)c1`: the “activity change, negative = inhibition” value is inactive: 4.1%.

In the case of `O=S(=O)(NCc1nc2cccnc2n1Cc1ccc(F)cc1)c1ccc(Cl)s1`, the “activity change, negative = inhibition” value was inactive: -16.6%. On to `CCc1ccc(NC(=O)C2CCN(S(=O)(=O)c3c(C)noc3/C=C/c3ccco3)CC2)cc1`, for which the “activity change, negative = inhibition” value was inactive: -24.1%. In the case of `CCCCCC(=O)N(c1ccc(OCC)cc1)S(=O)(=O)c1ccc2c(c1)n(C)c(=O)n2C`, the “activity change, negative = inhibition” value is inactive: 11.9%.

For `Cc1ccc(CCNC(=O)c2ccc(CS(=O)(=O)Cc3cccc(C)c3)o2)cc1`, the “activity change, negative = inhibition” value was inactive: -25.6%. Consider `Cc1ccc(NC(=O)Cn2cc3c(n2)CCC(C)C3)cc1C` (centres undefined), for which the “activity change, negative = inhibition” value was inactive: -16.8%.

With `CCn1ccc2cc(S(=O)(=O)N3CCCN(C(=O)NCC(=O)OC)CC3)ccc21`, the “activity change, negative = inhibition” value is inactive: -21.1%. With `Cc1ccccc1C(=O)NC1(C(F)(F)F)N=C(c2ccccc2)N(Cc2ccccc2)C1=O` (centres undefined), the “activity change, negative = inhibition” value was inactive: -24.3%.

On to `COc1cccc(-c2cc(C(F)(F)F)n3nc(C)c(-c4ccccc4)c3n2)c1`, for which the “activity change, negative = inhibition” value is inactive: -10.7%.

As to `O=C(COc1ccccc1[N+](=O)[O-])Nc1cc(-c2nc3cc(Cl)ccc3o2)ccc1Cl`, the “activity change, negative = inhibition” value is inactive: 2.86%. In the case of `COC(=O)c1ccc(Oc2nc3c(c(=O)n(C)c(=O)n3C)n2C(C)C)cc1`, the “activity change, negative = inhibition” value was inactive: -8.9%. With `CCc1ccccc1N(C)C(=O)c1nn(C)c2c1CSc1ccccc1-2`, the “activity change, negative = inhibition” value was inactive: -3.28%. Regarding `Cc1ccc2nc(N3CCC(C(=O)NCc4ccc(F)cc4)CC3)[nH]c2c1`, the “activity change, negative = inhibition” value is inactive: 15.2%.

Consider `CCC12CN3CC(C)(CN(C1)C3c1c[nH]c3ccc(OC)cc13)C2=O` (centres undefined), for which the “activity change, negative = inhibition” value was inactive: -17.8%.

Regarding `Cc1ccc(OCC(=O)Nc2ccc3nc(SCC(=O)N4CCOCC4)sc3c2)cc1C`, the “activity change, negative = inhibition” value was inactive: -2.85%. Next, `CCC(Sc1nc2cc3c(cc2c(=O)n1CCCC(=O)NCc1ccc(OC)cc1)OCO3)C(=O)NCCCOC` (centres undefined): inactive: -4.21%. As for `CCOC(=O)C1CCCN(C(=O)CCS(=O)(=O)c2cc3c(cc2Cl)NC(=O)CO3)C1` (centres undefined), the figure is inactive: -9.95%; as for `Cc1ccc2cccc(NC(=O)c3ccc(C#N)cc3F)c2n1`, inactive: -7.16%; as for `Cc1ccccc1NC(=O)Cn1c(=O)n(CCC(=O)NCc2ccc3c(c2)OCO3)c(=O)c2sccc21`, inactive: -11.6%. Turning to `O=C1CN(C(=O)c2ccc(S(=O)(=O)N3CCCCC3)cc2)C(c2ccc(F)cc2)c2cc(Br)ccc2N1` (centres undefined), the “activity change, negative = inhibition” value was inactive: -42.5%. Next, `COc1ccc(-c2onc(C)c2C)cc1S(=O)(=O)N1CCN(c2ccc(Cl)cc2)CC1`: inactive: -4.7%. `O=C(CSc1nc2c([nH]c3ccccc32)c(=O)n1-c1ccccc1)N1CCOCC1`: the “activity change, negative = inhibition” value is inactive: -2.78%. On to `CC(C)OC(=O)c1c(NC(=O)COc2cccc(Br)c2)sc2c1CCCC2`, for which the “activity change, negative = inhibition” value is inactive: -0.518%. `CC(CNC(=O)C1CCN(S(=O)(=O)c2ccc3c(ccn3C)c2)CC1)c1ccccc1` (centres undefined): the “activity change, negative = inhibition” value is inactive: 0%.

As for `COc1ccc(-c2coc3cc(O)ccc3c2=O)cc1`, the “activity change, negative = inhibition” value is inactive: 17.2%.

In the case of `Nc1nonc1C(=O)NCCNCc1cccc(Cl)c1Cl`, the “activity change, negative = inhibition” value is inactive: 7.12%. As for `O=C1CC(c2cccc(O)c2)c2cc3c(cc2N1)OCO3` (centres undefined), the “activity change, negative = inhibition” value was inactive: -13.8%. For the compound `CCCCN(CC)CCCNC(=O)C1CCCN(c2ncnc3c2nc2n3CCCCC2)C1` (centres undefined), the activity change, negative = inhibition is inactive: -18.9% [at 11.5 µM].

With `COc1ccc(NC(=O)Cn2c(=O)n(Cc3ccccc3Cl)c(=O)c3cc(OC)c(OC)cc32)cc1OC`, the “activity change, negative = inhibition” value was inactive: -2.5%. Take `Cc1ccc(NC(=O)c2c(C)oc3ccc(O)c(CN4CCCCCC4)c23)cc1`: the “activity change, negative = inhibition” value is inactive: -14.2%. As for `Cc1ccc(CCNC(=O)c2c(C)oc3nc(C)nc(N4CCOCC4)c23)cc1`, the figure is inactive: 0.337%; as for `Cn1cc(-c2cc3n(n2)CCC(=O)N3CC(=O)NCc2ccc(Cl)cc2)c2ccccc21`, inactive: 0%.
